B1: OR4K15 (parent)
chain: GUUAACGGUCAUAGGCCAUGGAAACUAGGAGCACCAUUUCGCUGCCAGUGAAGAAAUGAACAAAGAAAAUCUGGGCCAGGCAGGCAUCAAAAGAAAUAGUCUUGCGCUCAACCAGAAAGUCUGUAAUCAUUUUAAGGGUA

The source gives no read counts; variants with many changes may rest on few reads.

This series covers variants of B1. The experiment in a line: self-cleavage, relative activity (ratio to wild type); higher = more cleavage; in vitro, sequencing; the parent is a self-cleaving ribozyme.
For the variant A55G A62G A117C, the self-cleavage worked out at 0.29.
With A54G A69G U131C the figure was 0.43; with A54G A60G U108C, 0.03.
To A54U C71A C88A U102C belongs 0.34; to A54G A91G U100C A118G, 2.03; to A54G A60G U108C A110U, 0.02.
With A55G A66G A116G U122C the figure was 1.64; with A55G A66G A68G, 0.96.
With A55G A59G A94G A116G, the self-cleavage came out at 0.3.
As to A54G A62G A95G, the self-cleavage amounted to 1.16.
To A55G A59U A98G U127C U131C belongs 0.08; to A54G U100C A114G, 0.67; to A54U U57A U131C, 0.74.
With A54G C77U A78U A94G A117G the figure was 0.89; with A55C A60G A64G A110U, 1.07.
To A55G U57C A59G U72C belongs 0.23; to A54G A67G A90G A98U, 2.16.
A55G A94G U100A: the self-cleavage amounted to 0.05.
To A55C A63G U97C belongs 0.34.
To A54U A69G C88A A90G belongs 1.36; to A54G U57C A62G A91U U120C, 0.9; to A54G A86G U139A, 0.46.
To A54G C107G U108C A114U A126G belongs 0.
Consider A54U A64G A110U, for which the self-cleavage was 1.04.
A55G A86U A117G U122C: the self-cleavage was 1.84.
As to A54G A89C A111G, the self-cleavage turned out to be 0.01.
Take A54G U72C A114U: the self-cleavage was found to be 0.03.
To A54U U72C G74A belongs 0.31.
To A54G A94G G138A belongs 0.73.
With A54G U57G U87C U102C A118G the figure was 1.49.
With A55G A63U C105U A111G, the self-cleavage was 0.01.
To A55G G75C A91G belongs 0.07.
To A55G A63G A67G belongs 0.99; to A54G A64G A117G, 1.28; to A56C A92U A94G, 0.88.
To A55G A63G A66G A92G belongs 1.8; to A54G A59G A91G, 0.53.
For A55G A68G G80A A126G U130C, the self-cleavage came to 0.19.
To A54G U87C U122A belongs 1.06.
Turning to A54U U57C U103A, the self-cleavage was 0.1.
With A55G U108C A117G U127C the figure was 0.
To A54U A82G U102C U130C belongs 0.72; to A54G A69G A111G A116G, 0.02.
For the variant A54U U57C U70C A89G U102C U131C, the self-cleavage is 1.14.
To A54U A56G A110U belongs 1.35.
In the case of A54G U70C A90G A92G, the self-cleavage was 0.47.
On to A54U U100A A126G, for which the self-cleavage is 0.21.
Regarding A54U A60G U70A, the self-cleavage is 0.87.
To A55G A111G A116G belongs 0.05; to A54U A62U U100C U122A U132C, 1.92; to A54G A118G U133C, 1.88.
With A55G A68G U72C A111U U124C the figure was 0.03.
Regarding A54G U72C U103C, the self-cleavage came out at 0.11.
With A54U A86G U100A the figure was 0.66; with A54G A68G A126G U127C, 0.94; with A54G U72A C105U A111G, 0.
With A55G A67G A96G the figure was 2.21; with A54G A110U U120C, 0.47; with A54G A78U A98U A110U U132C, 0.22.
Regarding A55C A62U G74A U132C, the self-cleavage worked out at 0.16.
With A55U A59G U100G A117G the figure was 1.68; with A54G A60G U100C A118G U120C, 0.56; with A54G A60G A68U A117G, 0.71.
With A54G A69G U97A U108C A118G the figure was 0.01; with A54G A78U A116G A125G, 0.02; with A54G A68C A91U U108C, 0.02.
Take A56C A82G A91G: the self-cleavage amounted to 0.09.
To A54G A63G C109U belongs 0.42.
A54U G65A A94U: the self-cleavage turned out to be 2.31.
To A55G A60G A62U A82G A96G U97C belongs 0; to A54G U70C G80U A96G A140G, 0.13.
To A55G A60G A66G U97C belongs 0.96; to A55G A96G G106A U120C, 0.
On to A55U A95G A116G, for which the self-cleavage was determined as 1.84.
With A55G G73A U103A A117G A140G the figure was 0.01; with A54G U70C A96G, 1.33; with A54G A68G A91G, 1.29.
With A55U A59G C77A the figure was 0.68; with A55G A67G A114G U120C, 0.14; with A55G A114G A125G, 0.12.
To A54G A90G U103G A111G belongs 0.01; to A55G G84U A90U A116G, 0.06; to A54G A60G A62U A90G A110C, 0.08.
A56C U87C A89U A110U: the self-cleavage turned out to be 0.46.
With A54U A91G A116U U130C the figure was 0.01; with A55G A64G A96G A125U, 1.24.
To A54U A66G A69G belongs 0.09.
To A54G A68G C113G belongs 0.05.
Consider A55G A64U U70G, for which the self-cleavage worked out at 0.43.
With A55G A66G A110G the figure was 0.1; with A54U A95G U108A, 0; with A55G G79U A92G U130C, 0.05.
With A54U A98G A117G the figure was 0.63; with A54U A69G A82G A110G A111G U127C, 0.01.
With A55G A60G A135G the figure was 0.49; with A54G A63G A78G, 0.33.
With A55G A96G U102C A117G U122C, the self-cleavage is 1.64.
Take A54G U70C A91G: the self-cleavage came to 0.6.
For the variant A55G U102A A126G, the self-cleavage was 0.6.
On to A54G A67G A94G, for which the self-cleavage amounted to 0.86.
To A55C A59G A95U belongs 0.85; to A54G A56U A69G A86U, 0.93.
To A55G A56G A117G belongs 1; to A54G A59G A96G U120A, 2.53; to A54G A86G A90G, 0.67.
To A55G A82C U132C belongs 0.15; to A55G U87C A94C U102C U124C, 1.
For A54G A66G U127C, the self-cleavage was 1.26.
With A55C A60G A68G A82G A91G A126U the figure was 0.01.
For A54G A59G A114G A116G, the self-cleavage is 0.44.
Turning to A55G U103A A110U, the self-cleavage was 0.34.
With A55G U108C A111G A129G the figure was 0; with A55G A64G U122C U133C, 1.64.
To A54G A68G A82G A92G C105U A118G belongs 0.02; to A56C A86G U103C U108C, 0.01; to A55G A56G A60G A68G, 1.38.
To A55G C85G U127C belongs 0.29.
A54G U100C A140G: the self-cleavage stood at 1.71.
To A54U G83A A92G belongs 0.44; to A55G A67G A135U, 1.34.
As for A54G A69G U122A, the self-cleavage was found to be 1.2.
Consider A54G A89G U132A, for which the self-cleavage worked out at 0.84.
With A55G A67G A94U the figure was 2.14; with A55G A114U A117G, 0.04; with A55G U57C A89U A117G, 2.07.
To A54G A69G U103G belongs 0.01.
For A54G A68G G80A, the self-cleavage was found to be 0.26.
For A55U A60U A114G, the self-cleavage was found to be 0.27.
Regarding A55G A91U A118G, the self-cleavage came to 0.93.
With A55G A60G A110G A140G the figure was 0.15; with A54G A86G U124C, 1.28; with A55G U87C A91U A117G, 2.02.
With A55U A111G A118U the figure was 0.
To A55U A66G A129U belongs 0.94; to A54G A59G C121U, 1.72.
Take A55G C113G G137C: the self-cleavage was found to be 0.01.
To A55G A67G U120C belongs 0.41.
To A55G A98G U108C A118G belongs 0.01; to A54G A62C U127C, 1.09; to A55U A66G A118G, 0.73.
To A55G A92G U132G belongs 1.36; to A55G A68G A94G, 0.59; to A55C U72C A126G A129C, 0.17.
Consider A54G U87C U102C A118G A134G G136A, for which the self-cleavage stood at 1.74.
To A54G A64G A140G belongs 1.34.
To A54U A59G A62G A69G belongs 0.86.
For A54G U57C A95G, the self-cleavage worked out at 1.57.
Take A54G A82U A94G U122C: the self-cleavage stood at 0.15.
To A54G A82G G83U A91G U100C belongs 0.31; to A55U A60U A94G, 1.81.
With A55G A67G A78U the figure was 0.02; with A55G A82G U103A U108C U122C, 0.01; with A55G A67G A69G U103C, 0.55.
With A56C U87C U108A the figure was 0; with A54U A68G A117G, 1.45.
A55G U108A U122C: the self-cleavage turned out to be 0.01.
To A54U A69G U124C belongs 0.08; to A54U A63G A82G A126G, 0.4; to A56C A62G A114G, 0.06.
A55G A59G A91G U130C: the self-cleavage was 0.57.
For A54G A118C A126G, the self-cleavage stood at 0.53.
To A54G A78U A89G U132C belongs 0.08.
To A54G A60U A78G U120A belongs 0.33; to A54G C71A A129G, 0.18; to A54G U72A A90G A129G, 0.07.
With A55G A64G A95G A116G the figure was 0.4.
In the case of A54U A86U U87G, the self-cleavage came out at 1.05.

Values taken from the RNAGym collection of RNA variant scans (doi:10.7554/elife.90254).
